Experimental findings from the RNAGym collection of RNA variant scans (doi:10.1073/pnas.2313332121) are described below.

Sequences and labels used below:
B1: TPR 5TU (parent)
chain: GGAUCUUCUCGAUCUAACAAAAAAGACAAAUCUGCCACAAAGCUUGAGAGCAUCUUCGGAUGCAGAGGCGGCAGCCUUCGGUGGCGCGAUAGCGCCAACGUUCUCAACUAUGACACGCAAAACGCGUGCUCCGUUGAAUGGAGUUUAUCAUG

This sample is rich in variants without activity.

This series covers variants of B1. As to the kind of experiment: polymerase ribozyme fitness, log enrichment relative to wild type (log ratio); higher = more active; in vitro selection for triplet polymerase activity. The gist of the method: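 Mutant libraries for each subunit of a heterodimeric triplet polymerase ribozyme were made by PCR and then transcribed. Each library underwent one round of in vitro selection in triplicate: annealing with a biotinylated primer, the partner subunit and triplets, frozen incubation at −7 °C, gel excision of extended constructs, streptavidin-bead capture and RT-PCR. Input and output libraries were Illumina-sequenced, and only genotypes with ≥10 input reads and ≥1 read per output were kept. Fitness is the logarithm, base 2, of genotype enrichment over wild-type enrichment, computed from inverse-variance-weighted replicate averages.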
With A12U C38G G50A A66C, the “polymerase ribozyme fitness (log ratio)” value is at most -4.2.

Regarding A12C G86A U90A, the “polymerase ribozyme fitness (log ratio)” value is at most -4.2.

As to U13G A21C G48U, the “polymerase ribozyme fitness (log ratio)” value is -1.33.

A12G A23C A30G C95A C99U C131G C132A: the “polymerase ribozyme fitness (log ratio)” value was at most -4.2.

Take A12G A21C G34C C93U U135A: the “polymerase ribozyme fitness (log ratio)” value is at most -4.2.

Take U13A G58A U77C A107G A113U U127A A138C: the “polymerase ribozyme fitness (log ratio)” value was at most -4.2.

For U13A C38U, the “polymerase ribozyme fitness (log ratio)” value was -0.321.

For the variant U13A C76A U148G, the “polymerase ribozyme fitness (log ratio)” value is at most -4.2.

Regarding A12C G62A A122U, the “polymerase ribozyme fitness (log ratio)” value was -0.923.

As to G11U A22U G50U G84A A97C G141A, the “polymerase ribozyme fitness (log ratio)” value is at most -4.2.

As for A12G A21U C32G U78A G94C C103U U135A U148G, the “polymerase ribozyme fitness (log ratio)” value was at most -4.2.

In the case of A12C C14U A39U U55A A60U U82G G86U G100U C103A A113G, the “polymerase ribozyme fitness (log ratio)” value was at most -4.2.

Regarding U13C U15A A19U C63U G74U U78C C93G C96A U101G G152C, the “polymerase ribozyme fitness (log ratio)” value is at most -4.2.

For the variant U13A G42A C72U C79G A142C, the “polymerase ribozyme fitness (log ratio)” value was at most -4.2.

For U13C G25A A60U C87U G92A G140A U151A, the “polymerase ribozyme fitness (log ratio)” value was at most -4.2.

A12C A30G G83U G86A: the “polymerase ribozyme fitness (log ratio)” value is at most -4.2.

Turning to A12U C14U G50C A60G G74U C85U, the “polymerase ribozyme fitness (log ratio)” value is at most -4.2.

Consider A12C C57A G83U G136C, for which the “polymerase ribozyme fitness (log ratio)” value is -3.78.

For U13A U55G C85U A121G, the “polymerase ribozyme fitness (log ratio)” value was -1.11.

As for U13G A23U C87G, the “polymerase ribozyme fitness (log ratio)” value is at most -4.2.

On to U13A U55A A89C G128U, for which the “polymerase ribozyme fitness (log ratio)” value is -3.92.

With A12C U15G U56A C75U G86U C129A G133U, the “polymerase ribozyme fitness (log ratio)” value is at most -4.2.

Consider A12C A49U G67U C75U A91U G92A A98G A106C G143U, for which the “polymerase ribozyme fitness (log ratio)” value was at most -4.2.

Take A12G A19G A22G G46A C85A C95A C114G A142C G152C: the “polymerase ribozyme fitness (log ratio)” value is at most -4.2.

As for A12C C93G A98U, the “polymerase ribozyme fitness (log ratio)” value was -3.05.

With A12U C14A A24U U56A C85U C99U G141A, the “polymerase ribozyme fitness (log ratio)” value is at most -4.2.

On to U13G G68C G84A, for which the “polymerase ribozyme fitness (log ratio)” value was at most -4.2.

For the variant U13G A21G G58U G59U G71A C95G A97C U139G, the “polymerase ribozyme fitness (log ratio)” value was at most -4.2.

As to A12G A37U C79U A91U C99A A142C, the “polymerase ribozyme fitness (log ratio)” value is at most -4.2.

Turning to U13G C75U C95U A97C G112A A113G, the “polymerase ribozyme fitness (log ratio)” value is at most -4.2.

For the variant U13A U33A A52U A89G, the “polymerase ribozyme fitness (log ratio)” value was at most -4.2.

Take G11U G86U C125U A150C: the “polymerase ribozyme fitness (log ratio)” value is at most -4.2.

For U13G A29U A52U C87G A89G C149G, the “polymerase ribozyme fitness (log ratio)” value is at most -4.2.

On to A12U A24G C57A A115G A142G, for which the “polymerase ribozyme fitness (log ratio)” value is at most -4.2.

Turning to A12U G46A C75U C87A C99U G117A, the “polymerase ribozyme fitness (log ratio)” value was at most -4.2.

Turning to U13C C36A C85U U104G G141C A150U, the “polymerase ribozyme fitness (log ratio)” value is at most -4.2.

Turning to G11U A29G U127A A138C, the “polymerase ribozyme fitness (log ratio)” value was at most -4.2.

On to U13G C85U, for which the “polymerase ribozyme fitness (log ratio)” value is -1.63.

On to A12C G50C A66C C79G C93U C95U U139C A147U, for which the “polymerase ribozyme fitness (log ratio)” value was at most -4.2.

As for U13C A66G C85U C95A U101G C123A U127A U144A, the “polymerase ribozyme fitness (log ratio)” value was at most -4.2.

Take A12U A16U A40U U44A G46A A91C A97U A107U A115U U134A U146G: the “polymerase ribozyme fitness (log ratio)” value is at most -4.2.

For U13A A17C A49U G50A G74A U130G, the “polymerase ribozyme fitness (log ratio)” value was at most -4.2.

On to A12C C87U C114U U139G, for which the “polymerase ribozyme fitness (log ratio)” value was -3.08.

As to A12U A22U U56A G74A U104A C131G U144G C149U, the “polymerase ribozyme fitness (log ratio)” value is at most -4.2.

Regarding U13G A29U C51A U77C C79U G92U C99U A137U G143U, the “polymerase ribozyme fitness (log ratio)” value is at most -4.2.

In the case of U13G A41C U55G G94C C116A G143U U151G, the “polymerase ribozyme fitness (log ratio)” value was at most -4.2.

With A12G C95U, the “polymerase ribozyme fitness (log ratio)” value came out at 0.599.

As to A12C C129G, the “polymerase ribozyme fitness (log ratio)” value is -3.9.

Consider A12G A19U A20G C57A C87G U139C, for which the “polymerase ribozyme fitness (log ratio)” value is at most -4.2.

As for A12C U13C A30U A60C C93G G140U, the “polymerase ribozyme fitness (log ratio)” value was at most -4.2.

For the variant A12C C14G C57U A66C G71A G94U, the “polymerase ribozyme fitness (log ratio)” value was at most -4.2.

As to A12U A21U A40G G58U G81A G94A C123G G140C, the “polymerase ribozyme fitness (log ratio)” value was at most -4.2.

With U13C C85G G94A C95G U135A, the “polymerase ribozyme fitness (log ratio)” value was at most -4.2.

As to A12U G34C G58C U61A G80C G92A, the “polymerase ribozyme fitness (log ratio)” value is at most -4.2.

Regarding G11U G86C, the “polymerase ribozyme fitness (log ratio)” value was -3.55.

Turning to A12G U13C A21U A47G G80U A119C U127A, the “polymerase ribozyme fitness (log ratio)” value is at most -4.2.

With U13C A20U A30U C36U U56A A60U G84U C85G A119U, the “polymerase ribozyme fitness (log ratio)” value is at most -4.2.

For U13A A41C A91U C96U, the “polymerase ribozyme fitness (log ratio)” value is at most -4.2.

Turning to A12G A20C A39C A66G A73C G84U C132A G136U, the “polymerase ribozyme fitness (log ratio)” value is at most -4.2.

In the case of A12U C36A U56A G59C C96A G112C C114U C116G C149U A150G, the “polymerase ribozyme fitness (log ratio)” value was at most -4.2.

Regarding U13C A16G A19C A28U C38U U55G A73C U77C C95G, the “polymerase ribozyme fitness (log ratio)” value is at most -4.2.

Take A12G C69G A89U C96G U104A: the “polymerase ribozyme fitness (log ratio)” value is -2.98.

A12U A26U A30U A39U A49C U61A C87A: the “polymerase ribozyme fitness (log ratio)” value is at most -4.2.

Turning to U13C U61G G84A A91G, the “polymerase ribozyme fitness (log ratio)” value was -3.86.

As to A12U A19G U82C G83A A119U, the “polymerase ribozyme fitness (log ratio)” value is -4.07.

On to A12U G86A U101G, for which the “polymerase ribozyme fitness (log ratio)” value is -0.714.

For A12U C35G C87A G141A, the “polymerase ribozyme fitness (log ratio)” value is at most -4.2.

On to A12U A39C G70C U78C G81U G83A A106G, for which the “polymerase ribozyme fitness (log ratio)” value was at most -4.2.

Consider U13G G25C A30C C87G U101C A113U A147G, for which the “polymerase ribozyme fitness (log ratio)” value was at most -4.2.

For the variant A12G C14U, the “polymerase ribozyme fitness (log ratio)” value was -0.925.

For the variant U13G G58C A60G G88C A107G G143A, the “polymerase ribozyme fitness (log ratio)” value was at most -4.2.

Turning to U13G C85U C99U G128C C132U, the “polymerase ribozyme fitness (log ratio)” value is at most -4.2.

Regarding A12G U56A C76A G143U, the “polymerase ribozyme fitness (log ratio)” value was -3.46.

For the variant A12G C54U U61A C72A C96U A98U C99A A142C, the “polymerase ribozyme fitness (log ratio)” value was at most -4.2.

As for U13G A21U C32G A73U U78A C87A C118A, the “polymerase ribozyme fitness (log ratio)” value is at most -4.2.

As for A12G C79G G92A C105A A150U, the “polymerase ribozyme fitness (log ratio)” value was at most -4.2.

With A12U G25U A37G A47C U77A C95G G141A, the “polymerase ribozyme fitness (log ratio)” value was at most -4.2.

For the variant U13A C76G C95U A97U U145G A150C, the “polymerase ribozyme fitness (log ratio)” value was at most -4.2.

Take A12C A39G C43G A49U C75A A91C C99U G143C: the “polymerase ribozyme fitness (log ratio)” value was at most -4.2.

Turning to A12C A52G A64U C116G A138U G141C, the “polymerase ribozyme fitness (log ratio)” value was at most -4.2.

With A12G C76A C114U G141U, the “polymerase ribozyme fitness (log ratio)” value is at most -4.2.

On to A12C A19G G58C C79A C96U, for which the “polymerase ribozyme fitness (log ratio)” value was at most -4.2.

For the variant A12U C54A A60C C63G G74U, the “polymerase ribozyme fitness (log ratio)” value was at most -4.2.
